# Assay results as given in the supplement of paper PMC8728848.
# The other results are listed elsewhere or left out.
# How the values were obtained:
# Assay in all cases: glycan array binding signal (z-score within array); higher = stronger binding
# Conditions in all cases: glycan notation: IUPAC condensed, linker removed
# [1] = molecular target: Neu5Ac(a2-3)Gal(b1-4)GlcNAc(b1-3)Gal(b1-4)GlcNAc(b1-3)Gal(b1-4)GlcNAc
# Procedure, shortened: (§1)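 Columns mapping to the same glycan were averaged after glycan names were converted to IUPAC-condensed notation. The data come from 3228 arrays in the Consortium for Functional Glycomics database, limited to those with an available protein sequence. Binding is reported as a within-array Z-score averaged across arrays of one protein sequence and across linkers.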
# [2] = molecular target: Neu5Ac(a2-3)Gal(b1-4)GlcNAc(b1-3)Gal(b1-4)GlcNAc(b1-3)Gal(b1-4)GlcNAc(b1-2)Man(a1-3)[Neu5Ac(a2-3)Gal(b1-4)GlcNAc(b1-3)Gal(b1-4)GlcNAc(b1-3)Gal(b1-4)GlcNAc(b1-2)Man(a1-6)]GalNAc
# Procedure, shortened: as §1
# [3] = molecular target: Neu5Ac(a2-3)Gal(b1-4)GlcNAc(b1-3)Gal(b1-4)GlcNAc(b1-3)GalNAc
# Procedure, shortened: as §1
# [4] = molecular target: Neu5Ac(a2-3)Gal(b1-4)GlcNAc(b1-3)Gal(b1-4)GlcNAc(b1-3)[Neu5Ac(a2-3)Gal(b1-4)GlcNAc(b1-3)Gal(b1-4)GlcNAc(b1-6)]GalNAc
# Procedure, shortened: as §1
# [5] = molecular target: Neu5Ac(a2-3)Gal(b1-4)GlcNAc(b1-3)Gal(b1-4)GlcNAc(b1-6)[Gal(b1-3)]GalNAc
# Procedure, shortened: as §1
# [6] = molecular target: Neu5Ac(a2-3)Gal(b1-4)GlcNAc(b1-3)Gal(b1-4)[Fuc(a1-3)]GlcNAc
# Procedure, shortened: as §1
# [7] = molecular target: Neu5Ac(a2-3)Gal(b1-4)GlcNAc(b1-3)GalNAc
# Procedure, shortened: as §1
# [8] = molecular target: Neu5Ac(a2-3)Gal(b1-4)GlcNAc(b1-3)[Neu5Ac(a2-3)Gal(b1-4)GlcNAc(b1-6)]GalNAc
# Procedure, shortened: as §1
# [9] = molecular target: Neu5Ac(a2-3)Gal(b1-4)GlcNAc(b1-6)GalNAc
# Procedure, shortened: as §1
# [10] = molecular target: Neu5Ac(a2-3)Gal(b1-4)GlcNAc(b1-6)[Gal(b1-3)]GalNAc
# Procedure, shortened: as §1
# [11] = molecular target: Neu5Ac(a2-3)Gal(b1-4)GlcNAc(b1-6)[Neu5Ac(a2-3)Gal(b1-3)]GalNAc
# Procedure, shortened: as §1
# [12] = molecular target: Neu5Ac(a2-3)Gal(b1-4)GlcNAc6S
# Procedure, shortened: as §1
# [13] = molecular target: Neu5Ac(a2-3)Gal(b1-4)[Fuc(a1-3)]GlcNAc
# Procedure, shortened: as §1
# [14] = molecular target: Neu5Ac(a2-3)Gal(b1-4)[Fuc(a1-3)]GlcNAc(b1-2)Man
# Procedure, shortened: as §1
# [15] = molecular target: Neu5Ac(a2-3)Gal(b1-4)[Fuc(a1-3)]GlcNAc(b1-3)Gal
# Procedure, shortened: as §1
# [16] = molecular target: Neu5Ac(a2-3)Gal(b1-4)[Fuc(a1-3)]GlcNAc(b1-3)Gal(b1-4)GlcNAc
# Procedure, shortened: as §1
# [17] = molecular target: Neu5Ac(a2-3)Gal(b1-4)[Fuc(a1-3)]GlcNAc(b1-3)Gal(b1-4)[Fuc(a1-3)]GlcNAc(b1-3)Gal(b1-4)[Fuc(a1-3)]GlcNAc
# Procedure, shortened: as §1
# [18] = molecular target: Neu5Ac(a2-3)Gal(b1-4)[Fuc(a1-3)]GlcNAc(b1-3)GalNAc
# Procedure, shortened: as §1
# [19] = molecular target: Neu5Ac(a2-3)Gal(b1-4)[Fuc(a1-3)]GlcNAc(b1-6)[Gal(b1-3)]GalNAc
# Procedure, shortened: as §1
# [20] = molecular target: Neu5Ac(a2-3)Gal(b1-4)[Fuc(a1-3)]GlcNAc(b1-6)[Neu5Ac(a2-3)Gal(b1-3)]GalNAc
# Procedure, shortened: as §1
# [21] = molecular target: Neu5Ac(a2-3)Gal(b1-4)[Fuc(a1-3)]GlcNAc6S
# Procedure, shortened: as §1
# [22] = molecular target: Neu5Ac(a2-3)Gal6S(b1-4)GlcNAc
# Procedure, shortened: as §1
# [23] = molecular target: Neu5Ac(a2-3)Gal6S(b1-4)[Fuc(a1-3)]GlcNAc
# Procedure, shortened: as §1
# [24] = molecular target: Neu5Ac(a2-3)GalNAc
# Procedure, shortened: as §1
# [25] = molecular target: Neu5Ac(a2-3)GalNAc(b1-4)GlcNAc
# Procedure, shortened: as §1
# [26] = molecular target: Neu5Ac(a2-3)[GalNAc(b1-4)]Gal(b1-4)Glc
# Procedure, shortened: as §1
# [27] = molecular target: Neu5Ac(a2-3)[GalNAc(b1-4)]Gal(b1-4)GlcNAc
# Procedure, shortened: as §1
# [28] = molecular target: Neu5Ac(a2-3)[GalNAc(b1-4)]Gal(b1-4)GlcNAc(b1-3)GalNAc
# Procedure, shortened: as §1
# [29] = molecular target: Neu5Ac(a2-3)[Neu5Ac(a2-6)]GalNAc
# Procedure, shortened: as §1
# [30] = molecular target: Neu5Ac(a2-6)Gal
# Procedure, shortened: as §1
# [31] = molecular target: Neu5Ac(a2-6)Gal(b1-3)GlcNAc(b1-3)[Gal(b1-4)GlcNAc(b1-6)]Gal(b1-4)Glc
# Procedure, shortened: as §1
# [32] = molecular target: Neu5Ac(a2-6)Gal(b1-4)Glc
# Procedure, shortened: as §1
# [33] = molecular target: Neu5Ac(a2-6)Gal(b1-4)GlcNAc
# Procedure, shortened: as §1
# [34] = molecular target: Neu5Ac(a2-6)Gal(b1-4)GlcNAc(b1-2)Man
# Procedure, shortened: as §1
# [35] = molecular target: Neu5Ac(a2-6)Gal(b1-4)GlcNAc(b1-2)Man(a1-3)Man(b1-4)GlcNAc(b1-4)GlcNAc
# Procedure, shortened: as §1
# [36] = molecular target: Neu5Ac(a2-6)Gal(b1-4)GlcNAc(b1-2)Man(a1-3)[Gal(b1-4)GlcNAc(b1-2)Man(a1-6)]Man(b1-4)GlcNAc(b1-4)GlcNAc
# Procedure, shortened: as §1
# [37] = molecular target: Neu5Ac(a2-6)Gal(b1-4)GlcNAc(b1-2)Man(a1-3)[GlcNAc(b1-2)Man(a1-6)]Man(b1-4)GlcNAc(b1-4)GlcNAc
# Procedure, shortened: as §1
# [38] = molecular target: Neu5Ac(a2-6)Gal(b1-4)GlcNAc(b1-2)Man(a1-3)[GlcNAc(b1-4)][Neu5Ac(a2-6)Gal(b1-4)GlcNAc(b1-2)Man(a1-6)]Man(b1-4)GlcNAc(b1-4)GlcNAc
# Procedure, shortened: as §1
binder,measurement,setting,value
GS7807P-bth-537-23-537 (Bacteroides thetaiotaomicron) (protein) NYENINSNPYEAPDLSADGYALGSAMNNLAGCVVSPDVNTAQFTDCLLGGPLGGYFADSNAGFTETISNFNPKDDWSRVFLKSDKIIPTLYSNLTQVKLVSQNTNDPVPYAIAQVIKVAAMHRVTDAFGPIPYSQIGANGEIATPYDSQEVTYNTFFDELNAAIATLNENSNEQLVPTADYIYKGDVKKWIRFANSLKLRLAIRIAYANPVKAQQMAEEAVNPANGGVIESNADNATWNYFETSQNPIYVATRYNQVQTSDHGGVPCLTGGDTHAAADIICYMNGYKDNRREKFFTKSEWAGQDYVGMRRGIVIPELKTTGHKYSGVNIAPTSPLYWMNAAEVAFLRAEGQAVFNFSMGGTAESFYNQGIRLSFEQWGADGVEDYLKDDVNKPTAYTDPAGTNTYQNALSNITIKWNDSADKEEKQERIIVQKWIANWQLGNEAWADFRRTGYPKLIPVKENKSGGVVDSEKGARRMPYPLDEFVSNKANVEYAIANYLHGADNMATDVWWASKK,glycan array binding signal (z-score),[1],-0.118
same,glycan array binding signal (z-score),[2],-0.154
same,glycan array binding signal (z-score),[3],-0.392
same,glycan array binding signal (z-score),[4],-0.373
same,glycan array binding signal (z-score),[5],1
same,glycan array binding signal (z-score),[6],-0.328
same,glycan array binding signal (z-score),[7],-0.371
same,glycan array binding signal (z-score),[8],-0.364
same,glycan array binding signal (z-score),[9],0.224
same,glycan array binding signal (z-score),[10],-0.107
same,glycan array binding signal (z-score),[11],-0.358
same,glycan array binding signal (z-score),[12],-0.377
same,glycan array binding signal (z-score),[13],-0.393
same,glycan array binding signal (z-score),[14],-0.365
same,glycan array binding signal (z-score),[15],-0.36
same,glycan array binding signal (z-score),[16],0.04
same,glycan array binding signal (z-score),[17],-0.372
same,glycan array binding signal (z-score),[18],-0.032
same,glycan array binding signal (z-score),[19],0.564
same,glycan array binding signal (z-score),[20],0.189
same,glycan array binding signal (z-score),[21],-0.338
same,glycan array binding signal (z-score),[22],-0.352
same,glycan array binding signal (z-score),[23],-0.383
same,glycan array binding signal (z-score),[24],-0.389
same,glycan array binding signal (z-score),[25],-0.329
same,glycan array binding signal (z-score),[26],0.788
same,glycan array binding signal (z-score),[27],-0.363
same,glycan array binding signal (z-score),[28],-0.067
same,glycan array binding signal (z-score),[29],-0.34
same,glycan array binding signal (z-score),[30],0.265
same,glycan array binding signal (z-score),[31],-0.243
same,glycan array binding signal (z-score),[32],-0.35
same,glycan array binding signal (z-score),[33],-0.342
same,glycan array binding signal (z-score),[34],-0.32
same,glycan array binding signal (z-score),[35],-0.373
same,glycan array binding signal (z-score),[36],0.102
same,glycan array binding signal (z-score),[37],-0.356
same,glycan array binding signal (z-score),[38],-0.321
